Source: the RNAGym collection of RNA variant scans (doi:10.1073/pnas.2313332121)
Variants at the floor of the assay are shown more often than the library holds them.

B1: TPR 5TU (parent)
chain: GGAUCUUCUCGAUCUAACAAAAAAGACAAAUCUGCCACAAAGCUUGAGAGCAUCUUCGGAUGCAGAGGCGGCAGCCUUCGGUGGCGCGAUAGCGCCAACGUUCUCAACUAUGACACGCAAAACGCGUGCUCCGUUGAAUGGAGUUUAUCAUG

Variants of: B1
Test: polymerase ribozyme fitness, log enrichment relative to wild type (log ratio); higher = more active; in vitro selection for triplet polymerase activity
How it was run: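 Mutant libraries were PCR-built and transcribed for each subunit of a heterodimeric triplet polymerase ribozyme and selected for one round in triplicate at −7 °C, frozen, before gel excision of extended constructs and streptavidin-bead capture. Input and output libraries were Illumina-sequenced, keeping genotypes with ≥10 input reads and ≥1 read per output. Fitness is a logarithmic ratio of genotype to wild-type enrichment, in base 2, using inverse-variance-weighted replicate averages.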

Point of comparison: GGAUCUUCUCGAUUUAACAAAAAAGACAAAUCUGCCACAAAGCUUGAGAGCAUCUUCGGAUGCAGAGGCGGCAGCCUUCGGUGGCGCGAUAGCGCCAACGUUCUCAACUAUGACACGUAAAACGCGUGCUCCGUUGAAUGGAGUUUAUCAUG [C14U C118U], “polymerase ribozyme fitness (log ratio)” value -1.65. Against it:
- GGAUCUUCUCGAUUUAACAAAAAAGACAAAUCUGACACAAAGCUUGAGAGCAUCUUCGGAUGCAGAGGCGGCUGGCUACGGUGGCGCGGUAGGGACAACGUUCUCAACUAUGACACGCAAAACGCGUGCUCCGUUGAAUGGAGUUGAUCAUG [C14U C35A A73U C75G U78A A89G C93G C95A U146G] — lower, ≤ -4.2
- GGAUCUUCUCGAUUUAACAAAAAAGACAAAUCUGAGAUAAAGCUUGAGAGCAUCUUCGGAUGCAGAGGCGGCAGCCUUCGGUGGCGGGAUAGCGCCAACGUUCUCAACUAUGACACGCAAAACGCCUGCUGCGUUGAAUGGAGUUUAUCAUG [C14U C35A C36G C38U C87G G126C C131G] — lower, ≤ -4.2
- GGAUCUUCUCGAUUUAACAAAAAAGACAAAUCUGGCACAAAGCUUGAGAGCAUCUUCAGAUGCAGAGGCGCCAGCCUUCGGUGACGCGAUAGCGCCAACGUUCUCAACUGUGACACGCAAAACGCGUGCUCCGUUGAAUGGAGUUUAUCAUG [C14U C35G G58A G71C G84A A110G] — lower, ≤ -4.2
- GGAUCUUCUCGAUUUAACAAAAAAGACAAAUCUGGCACAAAGCUUGAGAGCAACUUCGGAUGCAGAGGCGGCAGCUUUCGGUGGCGCGAUACCGCCAACGUUCUCAACUAUGACACGCAUAACGCGUGCUCCGUUGAAUGGAGUUUAACAUG [C14U C35G U53A C76U G92C A120U U148A] — lower, ≤ -4.2
- GGAUCUUCUCGAUUUAACAAAAAAGACAAAUCUGUCACAAAGCUUGAGAGCAUCUUCGGAUGCAGAGGCGGCAGCCUUCGGUGGUGCGAUAGCGCCAACGUUCUCGACUAUGACGCGCAAAACGCGUGCUCCGUUGAAUGGAGUUUAUCAUG [C14U C35U C85U A106G A115G] — lower, -3.81
- GGAUCUUCUCGAUUUAACAAAAAAGACAAAUCUGCAACAAAGCUUGAGAGCAUCUACGGCUGCAGACGCGGCAGCCUUAGGUGGCGUGAUAGCGCCAACGCUCUCAACUAUGACUCGCAAAACGCGUGCUCCGUUGAAUGGAGUUUAUCAUG [C14U C36A U56A A60C G67C C79A C87U U101C A115U] — lower, ≤ -4.2
- GGAUCUUCUCGAUUUAACAAAAAAGACAAAUCUGCUACAAUGCUUGAGAGCAUCUUCGGAUGCAGAGGCGGCAGCCUUCGGUGGUGUGAUAGCGCCAACGUUCUCAACUAUGACAAGCAAAACGCGUGCUCCGUUGAAUGGAGUUUAUCAUG [C14U C36U A41U C85U C87U C116A] — lower, ≤ -4.2
- GGAUCUUCUCGAUUUAACAAAAAAGACAAAUCUGCCACAAAGGUUGAUAGCAUCUUCGGAUGCAGAGGCGGCAGCCUUCGGUGGCGCGAUAACGCCAACGUUCUCAACUAUGACACGCAAAACGCGUGCUCCGUUUAAUGGAGUUUAUCAUG [C14U C43G G48U G92A G136U] — lower, ≤ -4.2
- GGAUCUUCUCGAUUUAACAAAAAAGACAAAUCUGCCACAAAGCUUGAGAGCAUUUUCGGAUGCAGAGGCGGCAGCCUUCGGUGACGCGAUAGCGCCAACGUUCUCAACUAUGACACGCAAAACGCGUGCUCCUUUGAAUGGAGUUUAUCAUG [C14U C54U G84A G133U] — lower, -3.87
- GGAUCUUCUCGAUUUAACAAAAAAGACAAAUCUGCCACAAAGCUUGAGAGCAUCUUUGGAUGCAGAGGCGGCAGCCUUCGGUGGCGCGAUAGCGCCAACGUUCUCAACUAUGACACGCAAAACGCGUGCUCCGUUGAAUGGAGUUUAUCAUG [C14U C57U] — higher, -1.27
- GGAUCUUCUCGAUUUAACAAAAAAGACAAAUCUGCCACAAAGCUUGAGAGCAUCUUCGGAUGUAGAGGCGGCAGCCUUCGGUGGCGCGAUAGCCCCAACGUUCUCAACUAUGACACGCAAAACGCGUGCUCCGUUGAAUGGAUUUUAUCAUG [C14U C63U G94C G143U] — lower, ≤ -4.2
- GGAUCUUCUCGAUUUAACAAAAAAGACAAAUCUGCCACAAAGCUUGAGAGCAUCUUCGGAUGCAGAGGUGGCAGCCUUCGGUGGCGCGAUAGCGCCAACGUUCUCAACUAUGACACGCAAAACGCGUGCUCCUUUGAAUGGAGUUUAUCAUG [C14U C69U G133U] — lower, ≤ -4.2
- GGAUCUUCUCGAUUUAACAAAAAAGACAAAUCUGCCACAAAGCUUGAGAGCAUCUUCGGAUGCAGAGGCGGCAGCAUUCGGUGGCGUGAUAGCGCCAACGUUCUCAACUAUGACACGCAAAACGCGUGCUCCGUUGAAUGGAGUUUAUCAUG [C14U C76A C87U] — lower, -3.49
- GGAUCUUCUCGAUUUAACAAAAAAGACAAAUCUGCCACAAAGCUUGAGAGCAUCUUCGGAUGCAGAGGCGGCAGCCUUAGGUGGCGGGAUAGCGCCAACGUUCUUAACUAUGACACGCAAAACGCGUGCUCCGUUGAAUGGAGUUUAGCAUG [C14U C79A C87G C105U U148G] — lower, ≤ -4.2
- GGAUCUUCUCGAUUUAACAAAAAAGACAAAUCUGCCACAAAGCUUGAGAGCAUCUUCGGAUGCAGAGGCGGCAGCCUUCGGUGGCGUAAUAGCGCCAACGUUCUCAACUAUGACACGCAAAACGCGUGCUCCGUUGAAUGGAGCUUAUCAUG [C14U C87U G88A U144C] — lower, ≤ -4.2
- GGAUCUUCUCGAUUUAACAAAAAAGACAAAUCUGCCACAAAGCUUGAGAGCAUCUUCGGAUGCAGAGGCGGCAGCCUUCGGUGGCGCGAUAGCGCAAACGUUCUCAACUAUGACACGCAAAACGCGUGCUCCGUUGAAUGGAGUUUAUCAUG [C14U C96A] — within 0.2 log units, -1.59
- GGAUCUUCUCGAUUUAACAAAAAAGACAAAUCUGCCACAAAGCUUAAGAGCAUAUUCGGAUGCAGAGGCGGCAGCCUUCGGUGGCGCGAUAGCGCCAACGUUCUCAACUAUGACACGCAAAACGCGUGCUCAGUUGAAUGGAGUUUAUCAUG [C14U G46A C54A C132A] — lower, ≤ -4.2
- GGAUCUUCUCGAUUUAACAAAAAAGACAAAUCUGCCACAAAGCUUAAGAGCAUCUUCGGAUGCAGAGGCGGCAGCCUUGGGUGGCGCGGUAGCGGCCACGUUCUCAACUAAGACACGCAAAACGCGUGCUCCGUUGAAUGGAGUUUAUCAUG [C14U G46A C79G A89G C95G A97C U111A] — lower, ≤ -4.2
